In publication PMC4336329 (PLoS ONE, 2015):
Out of some 310,000 compounds screened, about 14,000 (4.5%) showed an effect of 50% or more. The effect is printed as a negative number. The list shows a part of the results.

molecular target: human ether-à-go-go-related gene (hERG) potassium channel (human, UniProt Q12809); experiment: primary screen, population patch clamp on CHO cells stably expressing hERG
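Note: peak tail current of the secondary pulse compared with the same well before compound.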

Chain of human ether-à-go-go-related gene (hERG) potassium channel (Q12809 whole entry, looked up): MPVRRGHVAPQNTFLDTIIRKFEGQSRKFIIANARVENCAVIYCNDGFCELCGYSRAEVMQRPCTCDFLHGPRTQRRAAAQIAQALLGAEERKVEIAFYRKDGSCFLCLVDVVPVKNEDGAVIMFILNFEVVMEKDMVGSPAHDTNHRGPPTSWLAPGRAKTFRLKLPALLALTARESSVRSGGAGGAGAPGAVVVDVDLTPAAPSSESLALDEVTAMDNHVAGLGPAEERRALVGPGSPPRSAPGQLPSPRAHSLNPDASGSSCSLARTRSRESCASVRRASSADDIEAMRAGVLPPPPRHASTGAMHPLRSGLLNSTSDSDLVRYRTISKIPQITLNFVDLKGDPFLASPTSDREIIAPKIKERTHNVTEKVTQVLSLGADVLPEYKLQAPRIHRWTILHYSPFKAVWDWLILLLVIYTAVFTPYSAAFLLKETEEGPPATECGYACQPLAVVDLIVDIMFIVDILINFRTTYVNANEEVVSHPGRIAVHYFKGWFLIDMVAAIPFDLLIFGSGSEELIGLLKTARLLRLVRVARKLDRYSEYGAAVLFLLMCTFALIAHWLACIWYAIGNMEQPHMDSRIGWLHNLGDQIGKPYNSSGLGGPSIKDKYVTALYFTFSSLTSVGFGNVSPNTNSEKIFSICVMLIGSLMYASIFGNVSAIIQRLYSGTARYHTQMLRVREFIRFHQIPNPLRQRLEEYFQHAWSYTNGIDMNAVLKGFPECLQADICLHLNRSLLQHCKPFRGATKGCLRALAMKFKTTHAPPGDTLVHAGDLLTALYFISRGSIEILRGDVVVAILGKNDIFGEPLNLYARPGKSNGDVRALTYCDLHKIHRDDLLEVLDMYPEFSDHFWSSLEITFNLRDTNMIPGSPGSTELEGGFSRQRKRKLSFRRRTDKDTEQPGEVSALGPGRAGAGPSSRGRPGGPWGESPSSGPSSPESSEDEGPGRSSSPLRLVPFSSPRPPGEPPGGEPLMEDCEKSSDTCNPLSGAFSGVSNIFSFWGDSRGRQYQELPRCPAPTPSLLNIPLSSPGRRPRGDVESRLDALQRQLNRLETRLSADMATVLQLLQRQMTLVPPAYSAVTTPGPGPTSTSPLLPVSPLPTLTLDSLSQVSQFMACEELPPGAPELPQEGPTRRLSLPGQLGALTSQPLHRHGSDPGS

| SMILES | hERG current change (%, negative = inhibition) at 10uM |
| --- | --- |
| O=C(Cc1ccccc1)NC(=S)Nc1cccc(C(F)(F)F)c1 | 15.1% |
| COc1ccccc1OCc1nn[nH]n1 | 22.2% |
| Cn1c2ccccc2c2cc(/C=C(\NC(=O)c3ccccc3)C(=O)NCC(=O)O)ccc21 | -3.42% |
| CC1(c2nnc(-c3ccncc3)o2)CC(c2cccc(Cl)c2)=NO1 (stereo not drawn) | -7.49% |
| COc1ccc(-n2nc(C(=O)NCC(=O)NC(C)C)c3ccccc3c2=O)cc1 | 13.7% |
| COc1ccc(-c2nn(-c3ccccc3)cc2C#N)cc1 | -1.94% |
| O=C(CSc1c2c(nc3cc(Cl)ccc13)CCCC2)NCc1ccco1 | -46.3% |
| Cn1ncc(Cl)c1C(=O)N1CCCc2ccccc21 | 3.22% |
| C[C@]12CC[C@@H]3c4ccc(OC(=O)c5ccccc5)cc4CC[C@H]3[C@@H]1CC[C@@H]2O | 3.61% |
| O=C(Cc1ccc(F)cc1)Oc1ccc(C(=S)N2CCCC2)cc1 | -3.36% |
| COc1ccccc1N1CCC(N2CCN(CC(C)(C)C)C(CCO)C2)CC1 (stereo not drawn) | -3.39% |
| CC1CC(C)CN(C(=O)Cn2c(=O)n(CCCC(=O)NCc3ccco3)c(=O)c3sccc32)C1 (stereo not drawn) | 12% |
| CC(C)(C)n1cnc2cc(NS(=O)(=O)c3ccc(Br)cc3)ccc21 | -31.3% |
| O=C(NCc1ccc(F)cc1)c1ccc(NC(=O)C2CCCO2)cc1 (stereo not drawn) | 3.15% |
| O=C1c2ccccc2C(=O)N1CCc1nc(-c2ccccn2)no1 | 2.78% |
| COC(=O)c1ccc(C(=O)OC)c(NC(=O)N2c3ccccc3Sc3ccccc32)c1 | 0.726% |
| CC1CCN(C(c2ccccc2)c2nnnn2C(C)(C)C)CC1.Cl (stereo not drawn) | -16% |
| Cn1ccnc1CN1CCCCC1C(=O)Nc1ccc(Oc2cccnc2)cc1 (stereo not drawn) | -6.72% |
| CC(NC(=O)C(=O)NCCN1CCN(C(=O)c2ccccc2Br)CC1)c1ccccc1 (stereo not drawn) | 6.37% |
| O=C(OCC(F)(F)C(F)F)c1ccccc1C(=O)Oc1ccc(F)cc1F | 9.98% |
| Cn1cc(CNC(=O)c2cc(-c3ccc(Br)cc3)nc3ccccc23)cn1 | -21.3% |
| CC[n+]1ccc(C(=O)NCc2ccccc2)cc1.[Cl-] | 13% |

| SMILES | hERG current change (%, negative = inhibition) at 10uM |
| --- | --- |
| O=C(NCCCn1ccnc1)c1cccc(S(=O)(=O)Nc2ccccc2F)c1 | 13.5% |
| CSc1ncccc1C(=O)OCC(=O)NC(C)C | -0.02% |
| CCN(C(=O)CSc1nnc(Nc2ccccc2C)s1)C1CCS(=O)(=O)C1 (stereo not drawn) | -6.24% |
| COc1cccc(-c2nc3ccc(O)cc3c(=O)o2)c1 | 1.21% |
| Cn1c(N)c(N=Nc2ccc(S(N)(=O)=O)cc2)c(=O)n(C)c1=O | 27.6% |
| CC(C(=O)Nc1ncn[nH]1)N1C(=O)c2ccccc2C1=O (stereo not drawn) | 17.4% |
| COc1cc(CN2CC(C)CC(C)C2)cc([N+](=O)[O-])c1O (stereo not drawn) | 6.83% |
| CCn1c(Cc2ccccc2)nnc1SCC(=O)N1CCCCC1 | 9.16% |
| CCOC(=O)c1c(/N=C/c2cccc([N+](=O)[O-])c2O)sc(C)c1C | 15.7% |
| Cc1ccc(S(=O)(=O)n2cccc2C)cc1 | 8.19% |
| O=C(NC1CCN(Cc2ccccc2)CC1)C1CCCN(S(=O)(=O)c2cccc3nonc23)C1 (stereo not drawn) | -55.9% |
| Cc1cc(Nc2ccc(Cl)cc2)n(-c2cccc(Cl)c2)n1 | -14.6% |
| CCC(C)C1C(C#N)=C(N)Oc2n[nH]c(-c3ccccc3)c21 (stereo not drawn) | 7.56% |
| O=C(NC1=NCCS1)c1cccs1 | 8.14% |
| Cc1ccc(C)c(NC(=O)CCN2C(=O)C3CC=CCC3C2=O)c1 (stereo not drawn) | 8.84% |
| CCOC(=O)c1ccc(NC(=O)CSc2nnc(-c3cccs3)n2CC)cc1 | 5.69% |
| CC(=O)Nc1ccc(S(=O)(=O)N2CCN(C(=O)c3ncoc3-c3ccc(F)cc3)CC2)cc1 | -7.72% |
| O=C(O)c1cc(NC(=O)c2cccc(C(=O)Nc3cc(C(=O)O)cc(C(=O)O)c3)c2)cc(C(=O)O)c1 | 15.8% |
| COc1cc(N2CCOCC2)ncn1 | -3.69% |
| O=S(=O)(c1ccc(Oc2ccccc2)cc1)N1CCOCC1 | 0.463% |
| CN(Cc1ccon1)C(=O)CC1C(=O)NCCN1Cc1cccc(Oc2ccccc2)c1 (stereo not drawn) | -13.2% |
| COc1ccc(Cl)cc1NC(=O)c1sc2nc(C)nc(N3CCOCC3)c2c1C | 6.35% |

| SMILES | hERG current change (%, negative = inhibition) at 10uM |
| --- | --- |
| COc1cccc(C(=O)C2CCCN(Cc3ccc(F)cc3)C2)c1 (stereo not drawn) | -18.6% |
| C=CCNc1ccc(C(=O)O)cc1 | -12% |
| COc1ccc(-c2c(-c3ccc(OCC(=O)NN)cc3O)n[nH]c2C)cc1 | -1.49% |
| Nc1ccccc1C(=O)NNC1=C(C(=O)C(F)(F)F)CCC1 | 8.37% |
| Cc1noc(C)c1C(=O)OCC(=O)Nc1ccccc1C(=O)NC(C)c1ccccc1 (stereo not drawn) | -18.6% |
| COc1cccc(CN(C)C(=O)c2ccc(C)c(S(=O)(=O)N3CCCCC3)c2)c1 | -27% |
| CC12CCC(=O)N1C(C(=O)N1CCN(S(=O)(=O)c3ccc(F)c(F)c3)CC1)CS2 (stereo not drawn) | -53.7% |
| Cc1ccnc(SCC(=O)N2CCN(c3ccccc3)CC2)n1 | -2.6% |
| O=C(Nc1ccon1)c1cnc2sccn2c1=O | 6.34% |
| CC(C)CN1CCC(=O)N(CCO)CC1 | 1.33% |
| CCS(=O)(=O)c1ccc2oc(Nc3ccccc3C)nc2c1 | -0.135% |
| CCOC(=O)C1=C(C)N(CCCC(=O)O)C(=O)NC1c1ccc(OC)cc1 (stereo not drawn) | -0.38% |
| CCOC(=O)C1=C(c2ccccc2)Nc2ncnn2C1c1ccc(C(=O)O)cc1 (stereo not drawn) | -21.2% |
| CC(C)(C)C(=O)NC(=S)Nc1cccc(C(=O)O)c1 | -1.75% |
| COc1cccc(N2CC(C(=O)Nc3nnc(SCCC4OCCO4)s3)CC2=O)c1 (stereo not drawn) | 5.65% |
| CC(C)C(c1nnnn1Cc1ccco1)N1CCN(C2CCCC2)CC1.Cl (stereo not drawn) | -3.68% |
| NNC(=O)CS(=O)(=O)c1ccc(Cl)cc1 | 11% |
| CCCCN(Cc1nc2ccccc2c(=O)[nH]1)C(=O)COc1ccc(F)cc1Cl | 2.89% |
| O=C(N=C1c2ccccc2CN1c1ccc(F)c(Cl)c1)c1cccnc1Cl | -3.77% |
| O=S(=O)(Nc1ccccc1N1CCOCC1)c1ccc(F)c(Cl)c1 | -18.6% |
| Cc1ccc2nc(SCC(=O)Nc3ccc(F)cc3)nc(=O)n2c1 | -43% |
| Cc1cccc(NC(=O)CNC(=O)c2ccccc2Cl)n1 | 3.81% |

| SMILES | hERG current change (%, negative = inhibition) at 10uM |
| --- | --- |
| CC[C@H]1OC(=O)[C@H](C)[C@@H](O[C@H]2C[C@@](C)(OC)[C@@H](O)[C@H](C)O2)[C@H](C)[C@@H](O[C@@H]2O[C@H](C)C[C@H](N(C)C)[C@H]2O)[C@](C)(OC)C[C@@H](C)C(=O)[C@H](C)[C@@H](O)[C@]1(C)O | 18.1% |
| CCOc1ccccc1N(CC(=O)Nc1ccc(OC)cc1OC)S(=O)(=O)c1ccccc1 | 14.6% |
| O=C(O)/C=C\C(=O)O | 8.4% |
| COc1ccc(NC(=S)N2CCc3cc(OC)c(OC)cc3C2)cc1 | 11.8% |
| Cc1ccc(NC(=O)CSCc2nc3c(nnn3Cc3ccc(F)cc3)c(=O)[nH]2)c(C)c1 | 8.78% |
| CN(Cc1cccnc1)C(=O)c1cc(COc2ccc3c(c2)CCCC3)on1 | -40.2% |
| C=CC[C@]12CCc3ccccc3C1N(c1ccc(C(=O)OCC)cc1)C2=O (stereo partly drawn) | 0.16% |
| CC(CNC(=O)c1cccs1)c1ccc([N+](=O)[O-])cc1 (stereo not drawn) | 4.3% |
| CC(C(=O)N1CCCC1)N1CCN(S(=O)(=O)c2ccc(C(C)(C)C)cc2)CC1 (stereo not drawn) | -30.9% |
| CC(=O)Nc1ccc(NC(=O)CSc2nncn2C)cc1 | 8.46% |
| Cc1nnc(C)c2c(C)n(Cc3ccc4c(c3)OCO4)c(C)c12 | -71.4% |
| O=C(CN1CCN(Cc2ccccc2)CC1)NCc1ccccc1Cl | -30.5% |
| Nc1cc(-c2ccc(Br)cc2)nn1S(=O)(=O)c1ccccc1 | 14.5% |
| CC/C(=N\NC(=O)c1ccc2c(c1)OCO2)C12CC3CC(CC(C3)C1)C2 | 14.6% |
| COc1ccc(OCC(O)CNS(=O)(=O)c2cccc(Cl)c2)cc1 (stereo not drawn) | -4.79% |
| COc1ccccc1C(C)NC(=O)Cc1ccsc1 (stereo not drawn) | 15.1% |
| CCc1ccc(S(=O)(=O)/N=C2\C=C(Nc3ccc(O)cc3)C(=O)c3ccccc32)cc1 | 13.8% |
| COc1ccc(OC)c(S(=O)(=O)N2CCCC2C(=O)NC(C)c2ccccc2)c1 (stereo not drawn) | 1.83% |
| O=C(Nc1ccccc1Cc1ccccc1)c1ccncc1 | 7.4% |
| COc1ccc(C2/C(=C(/O)c3ccc(C)cc3)C(=O)C(=O)N2CC2CCCO2)cc1OC (stereo not drawn) | 20.8% |
| Clc1ccc(C[n+]2cc(-c3ccccc3)n3c2CCCCC3)c(Cl)c1.[Br-] | -74.4% |
